Out of some 270,000 compounds screened, about 5,800 (2.1%) were called active. This list was built around the results that the source calls inconclusive (neither active nor inactive); the mix of calls is not that of the screen. The call rests on the fitted dose curve; in most records, active means well fitted inhibition curve with a large enough effect; inconclusive means small, poorly fitted or top-dose-only effect; inactive means flat fitted curve, though single readings scatter. Potencies of inconclusive entries are doubtful fits and often do not repeat.
biological target: Microtubule-associated protein tau (Homo sapiens) (UniProt P10636); assay: qHTS for Inhibitors of Tau Fibril Formation, Thioflavin T Binding; details: recombinant tau K18 P301L (four-repeat tau fragment), heparin-induced fibrillization, ThT fluorescence; series mostly up to 57.4 µM; further: nearly all actives have a fitted effect of over 55% in size
Outline: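 K18 P301L tau (15 uM + 0.24 uM Alexa 594-tagged), heparin 20 uM, NaOAc pH 7, 6 h 37 C; ThT 30 uM, 1 h RT, ex 450/em 510 nm.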
Potency means the concentration at half of the fitted maximal effect; tags describe the fitted curve by direction and shape.

Chain of UniProt P10636 (P10636 whole entry, looked up, the tested form may be a part): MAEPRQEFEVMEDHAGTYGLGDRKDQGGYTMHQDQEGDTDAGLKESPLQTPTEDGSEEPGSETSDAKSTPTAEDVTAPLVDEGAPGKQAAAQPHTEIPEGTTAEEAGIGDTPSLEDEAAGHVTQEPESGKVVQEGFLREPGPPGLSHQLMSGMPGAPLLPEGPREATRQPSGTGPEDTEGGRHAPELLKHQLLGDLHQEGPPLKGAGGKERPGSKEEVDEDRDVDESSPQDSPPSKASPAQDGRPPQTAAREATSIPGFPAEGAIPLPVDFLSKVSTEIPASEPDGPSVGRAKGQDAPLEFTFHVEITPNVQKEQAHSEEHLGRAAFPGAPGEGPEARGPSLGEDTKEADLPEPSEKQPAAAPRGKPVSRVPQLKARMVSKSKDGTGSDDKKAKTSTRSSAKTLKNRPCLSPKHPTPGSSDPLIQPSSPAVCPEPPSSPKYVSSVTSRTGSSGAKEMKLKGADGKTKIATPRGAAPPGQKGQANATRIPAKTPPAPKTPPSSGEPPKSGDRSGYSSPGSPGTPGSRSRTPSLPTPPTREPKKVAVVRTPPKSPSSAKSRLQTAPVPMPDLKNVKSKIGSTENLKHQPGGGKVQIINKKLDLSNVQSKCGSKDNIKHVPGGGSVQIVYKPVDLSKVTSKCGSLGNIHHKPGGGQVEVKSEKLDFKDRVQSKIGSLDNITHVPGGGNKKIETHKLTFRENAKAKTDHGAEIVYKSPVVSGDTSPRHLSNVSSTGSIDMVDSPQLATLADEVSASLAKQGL

SMILES | Potency
C=CCn1c(SCC(=O)NCCCC)nc2scc(-c3ccco3)c2c1=O | inconclusive: 31.6 µM [inhibitor, partial curve]
CN(C)c1ccc(Nc2nc(-c3cccnc3)cs2)cc1 | inconclusive: 1.78 µM [inhibitor, full curve]
COc1ccc(-c2cc(OC(=O)c3ccc(Cl)cc3)c3c(C)oc(C)c3c(=O)c2)cc1 | inconclusive: 14.1 µM [inhibitor, partial curve]
Cc1ccc(C)c(OCC(=O)Nc2ccc(N3CCOCC3)cc2)c1 | inconclusive: 31.6 µM [inhibitor, partial curve]
COc1ccc(CN(C(=O)/C=C/c2ccco2)C2CCS(=O)(=O)C2)cc1 (stereo not drawn) | inconclusive: 39.8 µM [inhibitor, single point]
CC1=NN(c2ccccc2)C(=O)/C1=C\c1sccc1C | inconclusive: 14.1 µM [inhibitor, partial curve]
O=C1c2ccccc2C(=O)N1OCc1ccc(Cl)cc1 | inactive
Cc1ccc(C(=O)n2c(-c3ccccc3)cnc2SCC(=O)Nc2ccccc2)cc1 | inconclusive: 14.1 µM [inhibitor, partial curve]
COc1ccc(/C=N/NC(=O)c2ccc(CSc3nc(C)cc(C)n3)cc2)cc1O | inconclusive: 2.82 µM [inhibitor, full curve]
Cc1ccc(S(=O)(=O)N2CCN(C(=O)N3CCOCC3)C2C(C)C)cc1 (stereo not drawn) | inactive
N#Cc1ccccc1/C=N/Nc1nc(-c2ccccc2)c2cc(Br)ccc2n1 | inconclusive: 15.8 µM [inhibitor, partial curve]
CC(C)CCNC(=O)[C@H](CSCc1ccccc1)N1Cc2ccccc2C1=O | inconclusive: 25.1 µM [inhibitor, single point]
CCOC(=O)CSc1nc(Nc2ccc3c(c2)OCO3)c2ccccc2n1 | inconclusive: 17.8 µM [inhibitor, partial curve]
CC1=CN2C(=N)/C(=C/c3ccc(Sc4ccc(Cl)cc4)o3)C(=O)N=C2S1 | active: 12.6 µM
Cc1ccc(CSc2ncc(Cl)c(C(=O)NCCc3ccc(S(N)(=O)=O)cc3)n2)cc1 | inactive
S=c1[nH]nc(C2CCCCC2)n1/N=C/C(Cl)=C\c1ccccc1 | inconclusive: 11.2 µM [inhibitor, partial curve]
O=C(CSc1nnc(CNc2ccc(Cl)cc2)o1)Nc1nc2c(s1)CCCC2 | inconclusive: 2.82 µM [inhibitor, full curve]
CCc1ccc(C(=O)c2cn(CC(=O)Nc3ccc(F)cc3)c3ccc(OC)cc3c2=O)cc1 | inconclusive: 7.08 µM [inhibitor, partial curve]
